# Reference: PubChem BioAssay AID1671193 (National Center for Advancing Translational Sciences (NCATS), 2021)
# Screen size: about 150,000 compounds; about 180 (0.12%) were called active. Inconclusive means that the source gave no clear call. Such entries were picked first, then a sample of the others. Calls come from the whole dose curve; as a rule, active = well fitted cell-killing curve with a large enough effect; inconclusive = small, poorly fitted or top-dose-only effect, or effect the other way; inactive = flat fitted curve, though single readings scatter. Potencies beside an inconclusive call are fits to weak or partial responses and may not hold up.
# Assay: GF-AFC viability counterscreen for inhibitors of alpha-synuclein gene (SNCA) expression; note: nearly all actives have a fitted effect of over 30% in size;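 for activity change, negative = cytotoxicity: 0% = DMSO-treated cells and -100% = medium-only wells without cells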
# Conditions: HEK-293-SNCA-luc viability, GF-AFC fluorescence, 24 h; activity change, negative = cytotoxicity: at 57.1 µM (top of the series) unless noted
# Method in brief: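 Cytotoxicity counterscreen: after 24 h compound treatment of genome-edited SNCA-luciferase HEK-293 cells, live-cell protease substrate GF-AFC read by fluorescence after 30 min; activity scaled between DMSO (0%) and medium-only (-100%), curves Hill-fitted.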
# Potency is the fitted concentration of half-maximal effect; tags give direction and shape of the fitted curve.
SMILES,Potency,"activity change, negative = cytotoxicity"
COc1ccc(-c2nc3sc(CCNS(=O)(=O)c4ccc(F)c(C)c4)c(C)n3n2)cc1,"inconclusive: 11.2 µM [cytotoxic, partial curve, poor fit]",–
O=C(NCC1CC1)c1cn2cc(-c3cccc(C(F)(F)F)c3)sc2n1,"inconclusive: 39.8 µM [cytotoxic, single point]",–
Cc1c(-c2ccc(Cl)cc2)c(=O)oc2c(CN3CCCC3)c(O)ccc12,"inconclusive: 28.2 µM [rising, partial curve]",–
CC[C@@]1(O)CCN(C(=O)c2cnc(N3CCOCC3)nc2)C[C@H]1O,–,inactive: -26.8%
O=c1cnc2cncnc2n1Cc1ccc(F)cc1,"inconclusive: 8.91 µM [cytotoxic, full curve, poor fit]",–
CCOC(=O)c1cccc(NC(=O)C(Cc2ccccc2)NS(=O)(=O)c2cccc3nsnc23)c1 (stereo not drawn),"inconclusive: 22.4 µM [cytotoxic, partial curve, poor fit]",–
CCCCNC(=O)CN1C(=O)COc2ccc(S(=O)(=O)N3CCCC3)cc21,–,inactive: -18.6%
Cc1ccc(C)c(Nc2nc3nonc3nc2Nc2cccc(C)c2C)c1,"inconclusive: 28.2 µM [cytotoxic, single point]",–
Cc1ccc(N2CC(NC(=O)c3ccco3)CC2=O)cc1C (stereo not drawn),–,inactive: -2.31%
FC(F)(F)c1cccc(-c2nccn3c(C4CN(Cc5ccc6cn[nH]c6c5)C4)ncc23)c1,"inconclusive: 31.6 µM [cytotoxic, partial curve, poor fit]",–
O=C(c1cccc(-n2cnnc2)c1)N1CCCC(Nc2ccc(F)c(F)c2)C1 (stereo not drawn),"inconclusive: 39.8 µM [cytotoxic, partial curve, poor fit]",–
Cc1ccc(CNC(=O)c2sc3nc(-c4ccc(F)cc4)ccc3c2N)cc1,"inconclusive: 3.55 µM [rising, full curve, poor fit]",–
O=C1CC2(CCN(CC3CCNC3)C2)Nc2ccccc2N1 (stereo not drawn),–,inactive: 6.05% [at 87.6 µM]
Cc1ccc(CSC2=Nc3ccccc3C3=NC(CC(=O)NCc4cccs4)C(=O)N23)cc1 (stereo not drawn),"inconclusive: 39.8 µM [cytotoxic, single point]",–
O=C(Nc1ccnn1C1CCN(Cc2ccc(-c3ccccc3)cc2)CC1)C1CC1,–,inactive: -3.51%
COc1cccc(CNC(=O)CN2C(=O)COc3ccc(S(=O)(=O)N4CCCCCC4)cc32)c1,"inconclusive: 14.1 µM [cytotoxic, partial curve, poor fit]",–
CCOC(=O)C[C@@H]1C[C@@H](C(C)C)[C@H](CNC(=O)c2ccc(F)cc2)C=C1C,"inconclusive: 44.7 µM [cytotoxic, single point]",–
Cc1c(-c2ccccc2)c(=O)oc2c(CN3CCCC3)c(O)ccc12,"inconclusive: 22.4 µM [rising, partial curve]",–
CCC(O)c1cc2n(n1)CCN(C(=O)c1cnn(-c3ccccn3)c1C)C2 (stereo not drawn),–,inactive: 5.77%

SMILES,Potency,"activity change, negative = cytotoxicity"
Cc1ccccc1NC(=O)c1c(NC(=O)C(F)(F)F)sc2c1CCCCC2,"inconclusive: 3.16 µM [cytotoxic, partial curve, poor fit]",–
CN1CCN(c2ncc3nc(-c4ccccc4)c(=O)n(CCC#N)c3n2)CC1,"inconclusive: 35.5 µM [rising, single point]",–
C[C@]1(CO)[C@H]2Cc3sc(-c4ccccc4)nc3[C@@H](CC(=O)O)[C@]2(C)CC[C@H]1O,–,inactive: 2.33% [at 87.6 µM]
O=S(=O)(Cc1ccccc1)N1CCCC(OCc2noc(C3CCOCC3)n2)C1 (stereo not drawn),"inconclusive: 3.55 µM [cytotoxic, single point]",–
COC(=O)N1CCN(C(=O)c2nc3cccnc3n(CCc3ccccc3)c2=O)CC1,–,inactive: -3.04%
Cn1cc(CC(=O)N2CCCc3ncc(C(=O)N4CCCC[C@@H]4Cc4ccccc4)cc32)c2ccccc21,"inconclusive: 31.6 µM [cytotoxic, single point]",–
COc1cccc(-c2noc(CC3CCN(C(=O)c4ccc(C)cc4)CC3)n2)c1,–,inactive: -13.1%
CN(C(=O)c1ccc2c(c1)N(Cc1ccccc1F)C(=O)c1ccccc1S2(=O)=O)C1CCCCC1,"inconclusive: 8.91 µM [cytotoxic, partial curve, poor fit]",–
CCc1cnn2c(NCc3ccc[n+]([O-])c3)cc(N3CCCC[C@@H]3CCO)nc12,"inconclusive: 0.0961 µM [cytotoxic, full curve, poor fit]",–
O=C(Cn1c(-c2cccs2)cc2cc(F)ccc21)N1CCCCC1,"inconclusive: 10 µM [cytotoxic, partial curve, poor fit]",–
O=C(NCc1cccc(F)c1)C1CCN(C(=O)c2ncn3c2COC(c2ccccc2)C3)CC1 (stereo not drawn),"inconclusive: 35.5 µM [rising, single point]",–
CC(C)CN(CC(C)C)S(=O)(=O)c1ccc(C(=O)Nc2sc3c(c2C(N)=O)CCN(C(C)C)C3)cc1,"inconclusive: 22.4 µM [rising, single point]",–
COc1ccc(-c2nc(-c3ccccc3)nc3c2CN(C(=O)c2ccccc2C)CC3)cc1,"inconclusive: 15.8 µM [cytotoxic, partial curve, poor fit]",–
COc1ccc(Cl)cc1C(=O)NCCc1ccc(S(=O)(=O)NC(=O)NC2CCCCC2)cc1,"inconclusive: 1 µM [rising, full curve, poor fit]",–
CCN1CCN(CCCNC(=O)c2cnn(-c3ccc(OC)cc3)c2C2CCN(C(=O)OC(C)(C)C)CC2)CC1,"inconclusive: 39.8 µM [cytotoxic, single point]",–
CCOC(=O)c1ccc(NC(=O)N2Cc3[nH]cnc3C[C@H]2c2nc(-c3ccc4c(c3)OCO4)no2)cc1,"inconclusive: 31.6 µM [cytotoxic, partial curve, poor fit]",–
CCN1CCOC(=O)C1CC(=O)Nc1cc(Cl)ccc1C (stereo not drawn),"inconclusive: 1.26 µM [rising, full curve, poor fit]",–
O=C(Nc1cccc(C(F)(F)F)c1)O[C@@H]1CO[C@H]2[C@@H]1OC[C@@H]2n1nnnc1SC1CCCC1,"inconclusive: 35.5 µM [cytotoxic, single point]",–
Cc1ccc(-c2cc3c(=O)n(CCNC(=O)c4cc(Cl)ccc4F)ccn3n2)cc1C,"inconclusive: 17.8 µM [cytotoxic, single point]",–
